Here are results for 115 sequences from the BET-seq Pho4 binding data (Le et al. 2018).

Some of the results follow. Values were computed here from the reads of four pooled replicates and scatter widely.

The target of this experiment is T1, Pho4 (S. cerevisiae) (UniProt P07270).
T1 sequence: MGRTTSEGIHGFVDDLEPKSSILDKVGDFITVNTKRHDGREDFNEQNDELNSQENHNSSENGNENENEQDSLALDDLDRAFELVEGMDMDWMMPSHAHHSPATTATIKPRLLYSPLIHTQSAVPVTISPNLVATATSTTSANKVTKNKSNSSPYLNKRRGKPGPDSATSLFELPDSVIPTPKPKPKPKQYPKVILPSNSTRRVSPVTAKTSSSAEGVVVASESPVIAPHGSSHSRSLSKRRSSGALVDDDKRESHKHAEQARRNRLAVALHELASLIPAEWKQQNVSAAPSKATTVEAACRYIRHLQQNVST
As to the kind of experiment: relative binding free energy (BET-seq); higher = weaker binding. The following applies: reference: library average.
Turning to TGGGTCACGTGCTTCT, the “relative binding free energy” value was determined as 0.08 kcal/mol. With TGGTGCACGTGACAAG, the “relative binding free energy” value turned out to be 0.06 kcal/mol. Next, GGCGGCACGTGACGGA: 0.1 kcal/mol.

With TGCCTCACGTGTTAGG, the “relative binding free energy” value is 0.3 kcal/mol. As for GCGTTCACGTGGGCGG, the “relative binding free energy” value worked out at 0.19 kcal/mol.

Consider TATTGCACGTGCTATA, for which the “relative binding free energy” value was -0.09 kcal/mol. Take TTCGTCACGTGGGGTT: the “relative binding free energy” value was -0.07 kcal/mol. Turning to TGGAACACGTGTCTGT, the “relative binding free energy” value was 0.07 kcal/mol. For AGTATCACGTGTTATT, the “relative binding free energy” value amounted to 0.05 kcal/mol. Next, GTGGGCACGTGTTGAT: 0.02 kcal/mol.

Consider GGCGTCACGTGGTCGT, for which the “relative binding free energy” value came out at 0.05 kcal/mol. As for CATGTCACGTGGTTTA, the figure is 0.02 kcal/mol; as for CGGGGCACGTGTTGAC, 0.03 kcal/mol. For the sequence CTATGCACGTGCTGGT, the “relative binding free energy” value is -0.11 kcal/mol.

As to TTTCGCACGTGGTTGG, the “relative binding free energy” value came out at 0.04 kcal/mol. Next, AATATCACGTGGTTAA: 0.07 kcal/mol; AAGTGCACGTGATGGC: 0.19 kcal/mol; TGTGGCACGTGCCTTT: -0.13 kcal/mol. Next, GTGATCACGTGAGGGC: 0.31 kcal/mol; AGGGTCACGTGCAGGG: 0.13 kcal/mol. Consider TGGTTCACGTGCAGTA, for which the “relative binding free energy” value is 0.28 kcal/mol. With TGGCACACGTGTGGGA, the “relative binding free energy” value worked out at 0.07 kcal/mol. Next, GGACTCACGTGGATGG: 0.21 kcal/mol; TGGTCCACGTGGAACG: 0.24 kcal/mol; AATGGCACGTGATTGG: 0.01 kcal/mol. Next, CAGAGCACGTGAGGAG: 0.23 kcal/mol; TATTTCACGTGCTTTA: 0.22 kcal/mol; GATTGCACGTGTGTTG: 0.14 kcal/mol. Take ATACGCACGTGGTGTA: the “relative binding free energy” value was -0.26 kcal/mol. As for GTCCTCACGTGGGGGT, the figure is -0.02 kcal/mol. Next, TGCAGCACGTGTCGTT: -0.05 kcal/mol.

Consider TTGGTCACGTGGAGCT, for which the “relative binding free energy” value was found to be 0.1 kcal/mol.

As for ATTTTCACGTGATAGA, the “relative binding free energy” value stood at 0.34 kcal/mol.

Take GGGGTCACGTGTACGA: the “relative binding free energy” value was 0.06 kcal/mol. In the case of AGATGCACGTGGGAGT, the “relative binding free energy” value is -0.07 kcal/mol.

As to TGCATCACGTGGTAGG, the “relative binding free energy” value stood at 0.02 kcal/mol. Next, GCGTTCACGTGGTGGA: 0.32 kcal/mol; ATGGCCACGTGGGGAA: -0.11 kcal/mol.

On to GTGTACACGTGTGAAT, for which the “relative binding free energy” value worked out at 0.09 kcal/mol.

Take TTAGTCACGTGGGTCC: the “relative binding free energy” value is 0.07 kcal/mol.

CGTGGCACGTGTAGGA: the “relative binding free energy” value turned out to be 0.01 kcal/mol. Next, TTGGACACGTGGGACT: 0.06 kcal/mol; GACGTCACGTGATTTT: 0.3 kcal/mol; AGGGTCACGTGATTGT: 0.27 kcal/mol. GTGAACACGTGGTCAG: the “relative binding free energy” value was -0.01 kcal/mol. As for GGTAACACGTGGATAA, the figure is 0.17 kcal/mol. As for TAAAACACGTGATGTG, the figure is 0.11 kcal/mol; as for TTAAGCACGTGGTATG, -0.13 kcal/mol. As for GTCTTCACGTGTCGGT, the “relative binding free energy” value came to 0.27 kcal/mol. In the case of ATCTGCACGTGTAGTT, the “relative binding free energy” value is -0.04 kcal/mol. As for GTCTTCACGTGTGGTT, the “relative binding free energy” value was determined as 0.23 kcal/mol. As for GTTAACACGTGGAGAT, the “relative binding free energy” value amounted to 0 kcal/mol.

For the sequence GTAGGCACGTGCGAGG, the “relative binding free energy” value was -0.1 kcal/mol. As for TGGGGCACGTGGCAGC, the figure is -0.2 kcal/mol. Take TGGGCCACGTGGGGCA: the “relative binding free energy” value is -0.25 kcal/mol. On to ATATGCACGTGGTGCT, for which the “relative binding free energy” value was -0.21 kcal/mol. Take TGATGCACGTGAGCAG: the “relative binding free energy” value was determined as 0.24 kcal/mol. As for CTTCGCACGTGGGGGT, the figure is -0.25 kcal/mol; as for AGGGGCACGTGAGCGG, -0.02 kcal/mol.

As to AGGTTCACGTGTCTTA, the “relative binding free energy” value stood at 0.36 kcal/mol. As for TAGTGCACGTGGTGCT, the figure is -0.19 kcal/mol; as for CTGTGCACGTGTGTGC, 0.02 kcal/mol. Next, TTTAACACGTGTTTTA: 0 kcal/mol; AGAGTCACGTGCAGGG: 0.02 kcal/mol; AGTGCCACGTGGGAAG: 0.01 kcal/mol.

As for AGCGACACGTGGAGTG, the “relative binding free energy” value was found to be 0.05 kcal/mol. Next, TAATACACGTGGAGTA: 0.09 kcal/mol; TCTGTCACGTGGATGT: 0.07 kcal/mol; ATTGTCACGTGTATAA: 0.06 kcal/mol. As to GATAGCACGTGGGCAG, the “relative binding free energy” value was -0.04 kcal/mol.

For the sequence GATGTCACGTGCTTTT, the “relative binding free energy” value came out at 0.16 kcal/mol.

For the sequence TGGCACACGTGTCTGG, the “relative binding free energy” value was -0.01 kcal/mol.

Consider CTGATCACGTGTGGCG, for which the “relative binding free energy” value was determined as 0.15 kcal/mol. On to TGGGACACGTGGAGGG, for which the “relative binding free energy” value was determined as 0.09 kcal/mol.

Consider GGGGGCACGTGTATAA, for which the “relative binding free energy” value stood at 0.03 kcal/mol. As for GGGATCACGTGCGCGG, the figure is 0 kcal/mol; as for AGTGGCACGTGGCTGC, -0.28 kcal/mol. As for AAATGCACGTGGTTTT, the figure is -0.02 kcal/mol; as for GGGGACACGTGGGTGT, -0.03 kcal/mol; as for TTTTGCACGTGGGTTC, -0.01 kcal/mol. With AAGTGCACGTGAATTG, the “relative binding free energy” value came to 0.31 kcal/mol. Next, TTGCACACGTGTGTTG: -0.05 kcal/mol. Next, TAGCGCACGTGTCTGG: -0.09 kcal/mol; GGAGACACGTGTATTT: 0.14 kcal/mol. Next, GATGGCACGTGATTTT: 0.04 kcal/mol; AGTGTCACGTGATGAC: 0.23 kcal/mol; TTTGGCACGTGTAGAG: -0.02 kcal/mol. For the sequence TCTTTCACGTGGTTTT, the “relative binding free energy” value amounted to 0.33 kcal/mol. As to GGGGTCACGTGCTTGT, the “relative binding free energy” value is 0.11 kcal/mol.

Take AGATGCACGTGATTGG: the “relative binding free energy” value is 0.13 kcal/mol. Next, GAGATCACGTGGGGTC: 0.06 kcal/mol. In the case of CGCGGCACGTGAAGGG, the “relative binding free energy” value was 0.19 kcal/mol. As for AGTTGCACGTGCGGCT, the figure is -0.12 kcal/mol; as for GCAGGCACGTGTAGTT, -0.02 kcal/mol. Next, CGGCACACGTGCGGGT: 0.05 kcal/mol; ACATACACGTGAGGTT: 0.29 kcal/mol; TCGAGCACGTGGTGCG: -0.21 kcal/mol.

Turning to ATGAGCACGTGACGTT, the “relative binding free energy” value stood at 0.06 kcal/mol. Next, ATAGGCACGTGTCGGA: 0 kcal/mol; TATGTCACGTGATAAG: 0.33 kcal/mol; GTTTTCACGTGATTGG: 0.4 kcal/mol. As for AAAGTCACGTGTGGTC, the figure is 0.1 kcal/mol; as for GTTGGCACGTGAGTAC, 0.16 kcal/mol; as for GGTAACACGTGTAGCG, 0.11 kcal/mol. Next, TGTGACACGTGGTTGC: -0.06 kcal/mol. For the sequence TTGGGCACGTGCCGAG, the “relative binding free energy” value was -0.15 kcal/mol. Turning to AGGATCACGTGTGGGG, the “relative binding free energy” value was determined as 0.24 kcal/mol. Regarding TGGGCCACGTGGGTAA, the “relative binding free energy” value was -0.24 kcal/mol. As for CTGTGCACGTGGGACG, the figure is -0.08 kcal/mol; as for CGGTCCACGTGGGAGT, -0.09 kcal/mol; as for TGGAACACGTGGGCGG, -0.02 kcal/mol. Regarding GTTGCCACGTGATAGG, the “relative binding free energy” value amounted to 0.08 kcal/mol.

For ATTGCCACGTGGCGTT, the “relative binding free energy” value was -0.04 kcal/mol. As for TGTTACACGTGGCCGG, the figure is 0.07 kcal/mol; as for ATGGACACGTGAGTAG, 0.13 kcal/mol.
